Source: the supplement of paper PMC3334620
Over roughly 33,000 sequences, “E-score (-0.5 to 0.5)” has its median near -0.04; the highest 2% begin near 0.36. The list shows a part of the results.

molecular target: T1, Hmlalpha2 (UniProt P0CY09); experiment: PBM E-score (8-mer binding enrichment) (E-score (-0.5 to 0.5)); higher = stronger / more preferred TF binding; most listed sequences are background and not binding sites; conditions: protein concentration: 200 nM; construct: GST-full length
T1 sequence: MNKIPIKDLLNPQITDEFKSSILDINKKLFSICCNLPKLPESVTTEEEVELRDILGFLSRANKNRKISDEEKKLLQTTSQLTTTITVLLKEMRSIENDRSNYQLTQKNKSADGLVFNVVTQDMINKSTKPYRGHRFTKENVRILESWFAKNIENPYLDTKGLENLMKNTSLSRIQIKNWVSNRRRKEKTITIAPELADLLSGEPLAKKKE
Protocol: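 Universal 'all 10-mer' protein binding microarrays (Agilent AMADID 015681) probed with GST-tagged S. cerevisiae TFs (full-length or DBD) made by in vitro transcription/translation (PURExpress), about 100-200 nM. Bound TF was detected with fluorescent anti-GST. Each ungapped 8-mer (which stands for itself and its reverse complement) is scored by the PBM enrichment score (E-score), a modified Wilcoxon-Mann-Whitney statistic from -0.5 to +0.5, computed with the Universal PBM Analysis Suite. Scale: above 0.35 generally sequence-specific binding.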

Going from ACACTTGA to AGAGCCCC, the “PBM E-score” value falls from -0.0396 to -0.329.

First: ATAGAAGA
Second: GACCAACA
The “PBM E-score” value of the first is lower: 0.00819 for the first, 0.29 for the second.

Going from ACATAGGT to GCATCATA, the “PBM E-score” value falls from 0.335 to 0.202.

First: ATCACGCC
Second: CCTACGCC
The “PBM E-score” value of the first is higher: -0.0263 for the first, -0.308 for the second.

Going from AGAGCGAG to GTAGACGA, the “PBM E-score” value rises from -0.131 to 0.17.

Going from ACACACCA to GATTACGC, the “PBM E-score” value falls from 0.369 to 0.345.

Compared with ACCCGGGG, TAGTGGGA is higher in “PBM E-score” value: -0.223 for the first, -0.0891 for the second.

Going from CCGAGCCA to ATATTGGA, the “PBM E-score” value rises from -0.0809 to -0.0473.

Compared with TCAGGAAA, CTCGGTCA is higher in “PBM E-score” value: -0.145 for the first, -0.085 for the second.

First: AAGTGATC
Second: GCAAATGA
The “PBM E-score” value of the first is higher: 0.00443 for the first, -0.0665 for the second.

First: CAAATGCA
Second: AATTTGCT
The “PBM E-score” value of the first is lower: 0.0659 for the first, 0.117 for the second.

Going from TAGTATGA to CGAAAGAG, the “PBM E-score” value falls from 0.128 to -0.136.

Compared with AGACAATA, ACCGCTAA is lower in “PBM E-score” value: 0.0893 for the first, 0.0418 for the second.

First: CATTATCA
Second: AGCGAAAG
The “PBM E-score” value of the first is higher: 0.141 for the first, -0.166 for the second.

First: AATTTAAT
Second: GCGAGAGC
The “PBM E-score” value of the first is higher: 0.269 for the first, -0.0684 for the second.

Going from AGCCTCTG to AACTAAGA, the “PBM E-score” value rises from -0.341 to 0.166.

Going from ACATCCAT to GATCTAGA, the “PBM E-score” value falls from 0.121 to -0.184.

First: CAGGTGTC
Second: CCCAAAGA
The “PBM E-score” value of the first is lower: -0.145 for the first, -0.0661 for the second.

Going from AACTGCTA to GAAAGCGA, the “PBM E-score” value rises from -0.0585 to -0.0353.

First: TAAGCCAA
Second: TACACGCA
The “PBM E-score” value of the first is lower: 0.0211 for the first, 0.442 for the second.

Going from ACACAATA to GACAGTGA, the “PBM E-score” value falls from 0.253 to 0.039.

Compared with AGAATGTC, TACGGACA is lower in “PBM E-score” value: 0.0879 for the first, 0.0328 for the second.

First: ATCTTGTA
Second: ATAAGTCC
The “PBM E-score” value of the first is higher: 0.383 for the first, -0.139 for the second.

Going from ACCCAGAT to GACGTGAC, the “PBM E-score” value rises from -0.26 to -0.0049.

Compared with CGGACGTC, GAACCACA is higher in “PBM E-score” value: -0.051 for the first, 0.0162 for the second.

Going from GAGAACAC to CGCCATAA, the “PBM E-score” value falls from 0.175 to -0.148.

Going from TCGAAGCA to CCTGTTCC, the “PBM E-score” value rises from -0.122 to -0.0872.

Going from ACGGGATG to CGTCGCAC, the “PBM E-score” value falls from -0.0871 to -0.139.

Going from CGGTACGC to GGGTCACA, the “PBM E-score” value falls from 0.0577 to -0.265.

Compared with GGGCAGTA, ATGGCATC is higher in “PBM E-score” value: -0.213 for the first, -0.168 for the second.

First: GGAGCGAA
Second: GTATTTGA
The “PBM E-score” value of the first is lower: -0.148 for the first, 0.189 for the second.

Going from ATCTATTC to TATTAAGA, the “PBM E-score” value rises from -0.0341 to 0.0998.

Going from AGATTTCA to ATTGGGGA, the “PBM E-score” value falls from 0.115 to -0.192.

Going from AATCACTA to CATGAGCC, the “PBM E-score” value falls from 0.00721 to -0.00078.

First: CGCAGTAG
Second: CTAGTGAC
The “PBM E-score” value of the first is higher: -0.0703 for the first, -0.0738 for the second.

Going from AGCCTTCA to TGCAGCCA, the “PBM E-score” value falls from -0.0117 to -0.185.

First: CTCGCCCA
Second: CATTGCAA
The “PBM E-score” value of the first is lower: -0.141 for the first, 0.0072 for the second.

Compared with TAAAGCAA, AATGCCGT is lower in “PBM E-score” value: 0.139 for the first, 0.0599 for the second.

Compared with AGGACGAA, AGCCAGCT is higher in “PBM E-score” value: -0.132 for the first, 0.0204 for the second.

Going from TATCACCA to CGCATCGA, the “PBM E-score” value rises from 0.0236 to 0.0626.

Going from AACACCTC to CTCGATGA, the “PBM E-score” value falls from -0.0165 to -0.0377.

Going from GGTACAAA to AATTGCCA, the “PBM E-score” value falls from 0.138 to -0.0393.

Going from CCATAGCG to ATTGTCCG, the “PBM E-score” value rises from -0.0817 to 0.00715.

First: CCGATATC
Second: AAGGGCTG
The “PBM E-score” value of the first is higher: -0.0999 for the first, -0.315 for the second.

First: GAAGATGC
Second: AATACAAA
The “PBM E-score” value of the first is lower: -0.305 for the first, 0.363 for the second.

Compared with ACGCGGTG, CAGACAGG is lower in “PBM E-score” value: 0.228 for the first, -0.219 for the second.

Going from GGCGATCA to AGATTGGA, the “PBM E-score” value rises from -0.0532 to -0.00393.

Compared with CCTATACC, CGCCAAAC is higher in “PBM E-score” value: -0.28 for the first, -0.146 for the second.

Going from GGAGGGAA to GAACCTAA, the “PBM E-score” value rises from -0.325 to -0.135.

Compared with GACTTCCC, CGAAACAC is higher in “PBM E-score” value: -0.275 for the first, 0.179 for the second.

First: CAGGCCTC
Second: GCTCGACA
The “PBM E-score” value of the first is lower: -0.177 for the first, -0.0369 for the second.

Going from CACGATTC to AACAAGGC, the “PBM E-score” value rises from 0.114 to 0.219.

First: ATTACGTC
Second: CGCATAAC
The “PBM E-score” value of the first is higher: 0.321 for the first, -0.041 for the second.

Going from TATTCCGA to AACTTGCT, the “PBM E-score” value falls from 0.0922 to -0.0772.

Going from ACCTGGAG to TACTGCAA, the “PBM E-score” value falls from 0.0158 to 0.0107.

Compared with TACAGTGA, TCCAGCCA is lower in “PBM E-score” value: 0.194 for the first, -0.0964 for the second.

Going from ACCCTTGG to CCAATCGC, the “PBM E-score” value rises from -0.263 to -0.252.

First: AGCAAGGC
Second: TGCAGGCA
The “PBM E-score” value of the first is lower: -0.225 for the first, -0.0877 for the second.

Compared with ATGACAGG, AAATGCAT is higher in “PBM E-score” value: -0.0747 for the first, 0.0313 for the second.

Compared with ACACGTGG, AGATGCTA is lower in “PBM E-score” value: 0.293 for the first, -0.0455 for the second.

First: AACATGGG
Second: GGCATAAC
The “PBM E-score” value of the first is higher: 0.415 for the first, -0.0304 for the second.

Compared with CTGTCGGA, ACAAGTCA is lower in “PBM E-score” value: 0.0323 for the first, 0.0314 for the second.

Compared with CCGTCTCG, GTGCCGGA is lower in “PBM E-score” value: -0.159 for the first, -0.275 for the second.

First: CTAGAGGC
Second: ATCACGGC
The “PBM E-score” value of the first is lower: -0.176 for the first, -0.103 for the second.

Compared with CGCTTTTA, AATATGAT is lower in “PBM E-score” value: 0.152 for the first, -0.0482 for the second.

Compared with AGTGACGC, GTTCCTGA is lower in “PBM E-score” value: -0.0855 for the first, -0.267 for the second.

Compared with ACGATCGA, AGTGCAGC is lower in “PBM E-score” value: 0.0963 for the first, -0.0472 for the second.

Going from GCTTAACC to AACCACTA, the “PBM E-score” value rises from -0.00807 to 0.0213.

Compared with GGACGGGA, GAGTAAGA is higher in “PBM E-score” value: -0.229 for the first, 0.146 for the second.

Compared with CACGCGCC, CGGTGTAA is higher in “PBM E-score” value: 0.129 for the first, 0.285 for the second.

Going from AAAGTATT to GGTATAGA, the “PBM E-score” value falls from 0.0571 to -0.00821.

Going from GACAGGCA to ACTGAAGT, the “PBM E-score” value rises from -0.257 to -0.114.

Going from GTGGGTAA to ATTCGATC, the “PBM E-score” value rises from 0.0692 to 0.0959.

First: AGCCCCGA
Second: TAGGCCAA
The “PBM E-score” value of the first is lower: -0.231 for the first, -0.0405 for the second.

First: ATCATAAG
Second: GAGCAGGC
The “PBM E-score” value of the first is higher: -0.00054 for the first, -0.138 for the second.

First: GAACAGAC
Second: GTTGGGAA
The “PBM E-score” value of the first is higher: 0.0203 for the first, 0.0189 for the second.

Compared with AGCCGGGC, GGGATATA is higher in “PBM E-score” value: -0.15 for the first, -0.125 for the second.

Going from CGCTCAAC to ATAATAAT, the “PBM E-score” value rises from 0.06 to 0.181.

First: ACATTCGA
Second: ACCCCCGC
The “PBM E-score” value of the first is higher: 0.123 for the first, -0.277 for the second.

First: AGCAGGAT
Second: AGTCAACC
The “PBM E-score” value of the first is higher: -0.14 for the first, -0.221 for the second.

First: GATGCTTA
Second: GGCATTAA
The “PBM E-score” value of the first is lower: -0.132 for the first, 0.0928 for the second.

Compared with GGCTGCAC, AAGTATCT is higher in “PBM E-score” value: -0.118 for the first, 0.0958 for the second.

Compared with GCGCAGAA, ACTGGTCC is lower in “PBM E-score” value: 0.0478 for the first, -0.218 for the second.

Going from CGTAGGAG to ATGTTTAC, the “PBM E-score” value rises from -0.0815 to 0.433.

Going from ATAACTAA to CACGTCAG, the “PBM E-score” value falls from 0.227 to -0.0908.

Compared with AAACCTTG, GGAGGTGA is lower in “PBM E-score” value: 0.0591 for the first, -0.0585 for the second.
